# Assay results from article PMC6919601, “Identification of Plasmodium dipeptidyl aminopeptidase allosteric inhibitors by high throughput screening” (PLoS ONE, 2019).
# “And” between values parts separate entries of the source, which are not always exact repeats. Equal values may be shown once. The campaign covered roughly 110,000 compounds. About 230 (0.21%) showed an effect of 50% or more. The list shows a part of the results.
# Target: DPAP1 (Plasmodium falciparum, UniProt Q8IIJ9)
# Experiment: primary screen, percent inhibition; read by cleavage of a fluorogenic dipeptide substrate; higher = more effect of the substance
# Design: species or system P. falciparum D10 trophozoite lysates; single well
# 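Further: 30 min substrate incubation versus DMSO and 10 µM JCP410 controls.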
# DPAP1, sequence (Q8IIJ9 whole entry, looked up): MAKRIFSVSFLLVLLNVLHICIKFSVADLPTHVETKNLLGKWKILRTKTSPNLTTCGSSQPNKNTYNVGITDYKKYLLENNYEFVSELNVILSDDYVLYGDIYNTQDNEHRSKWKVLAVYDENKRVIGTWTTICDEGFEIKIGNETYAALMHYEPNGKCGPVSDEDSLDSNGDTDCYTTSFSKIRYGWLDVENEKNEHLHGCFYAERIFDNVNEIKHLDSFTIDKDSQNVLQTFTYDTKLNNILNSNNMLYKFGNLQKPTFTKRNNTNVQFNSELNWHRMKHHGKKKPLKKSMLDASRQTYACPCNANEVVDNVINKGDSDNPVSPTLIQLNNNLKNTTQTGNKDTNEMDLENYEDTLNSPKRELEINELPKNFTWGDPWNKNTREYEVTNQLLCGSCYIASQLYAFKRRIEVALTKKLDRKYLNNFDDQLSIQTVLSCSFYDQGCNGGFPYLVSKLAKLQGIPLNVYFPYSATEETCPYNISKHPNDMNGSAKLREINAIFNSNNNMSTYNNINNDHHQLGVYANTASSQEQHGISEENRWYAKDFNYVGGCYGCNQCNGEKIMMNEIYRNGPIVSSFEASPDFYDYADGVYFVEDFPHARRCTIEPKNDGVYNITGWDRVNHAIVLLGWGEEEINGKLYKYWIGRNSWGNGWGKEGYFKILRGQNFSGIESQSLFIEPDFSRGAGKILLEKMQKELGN
row,SMILES,% Inhibition @ 10 uM
1,COc1ccc(S(=O)(=O)Nc2cc(Cl)ccc2OC)cc1,3.53%
2,Cc1sc(Nc2ccc(C(=O)O)cc2)nc1-c1ccc(Cl)cc1,6.31%
3,CCCCn1c(CCCNC(=O)C(C)(C)C)nc2ccccc21,-0.58%
4,N#Cc1cccc(NC(=O)c2ccccc2Cl)c1,7.54%
5,O=C(Nc1ccc(S(=O)(=O)N2CCCCCC2)cc1)Nc1cccc2ccccc12,-0.48%
6,O=[N+]([O-])c1ccccc1S(=O)(=O)Nc1cccc2cccnc12,-3.48%
7,O=[N+]([O-])c1ccccc1S(=O)(=O)N1CCN(c2ccc(F)cc2)CC1,0.827%
8,C=CCOc1ccc(C2C(C(=O)c3ccc(OCC)cc3C)=C(O)C(=O)N2Cc2cccnc2)cc1 (centres unmarked),1.31%
9,COc1ccc(N2C(=O)CC(NCCCN3CCOCC3)C2=O)cc1 (centres unmarked),4.07%
10,CCC1=NC(CC)(CC)c2ccccc2O1,3.96%
11,COCCCNC(=O)Cn1nc(C)c2c(C)n(-c3ccccc3)nc2c1=O,2.31%
12,CN1C(=O)C(O)=C(C(=O)c2ccccc2)C1c1ccccc1 (centres unmarked),-0.711%
13,Cc1ccc(CNC(=O)CCc2c(C)nc3nc(CNC(=O)c4cccc(F)c4)nn3c2C)cc1,-2.17%
14,O=C(/C=C/C=C(Cl)Cl)c1ccc(O)cc1,0.035%
15,CCCCn1c(=O)c(C(=O)Nc2cccc(C)c2)c(O)c2ccccc21,2.03%
16,O=C1C2CCCN2C(=O)N1CCCCN1CCN(c2cccc(C(F)(F)F)c2)CC1 (centres unmarked),1.64%
17,Cc1cccc(OCCn2c(N)nc3ccccc32)c1,5.94%
18,COC(=O)c1c(C(=O)OC)c2n(c1C)[C@@H](c1ccc(Cl)cc1)SC2,-2.63%
19,CCCCNC(=O)Nc1ccccc1C(=O)NCCC,8.05%
20,COc1ccccc1CNC(=O)c1cc(S(=O)(=O)N2CCCC2)cn1C,2.81%
21,Cc1c(C(=O)NCCCN2CCCCC2)oc2ccc3c(c12)C(=O)CC1(CCCC1)O3,0.623%
22,CCCn1c(CCC(=O)O)ccc1-c1ccc(Br)cc1,-1.1%
23,C=C(C)[C@@H]1CC=C(CN(CCCN(C)C)CCCN(C)C)CC1,-2.02%
24,CCOC(=O)c1cc2c(=O)n3ccccc3nc2n(C(C)C)/c1=N\C(=O)c1ccc(OCC)cc1,2.84%
25,CCn1c2ccccc2c2nnc(NCc3ccccn3)nc21,-0.102%

row,SMILES,% Inhibition @ 10 uM
1,O=C(c1ccc(N2C(=O)C3CCCCC3C2=O)cc1)N1CCCCC1 (centres unmarked),-1.43%
2,Cc1c2cnn(CC(=O)NCCCN3C(C)CCCC3C)c(=O)c2c(C)n1Cc1ccccc1 (centres unmarked),-2.39%
3,CCn1c2ccccc2c2nnc(-n3nc(C)cc3C)nc21,-2.32%
4,NCCc1n[nH]c(C(c2ccccc2)c2ccccc2)n1,-6.71% and -8.11%
5,Fc1ccc(Br)cc1SCCc1ccccn1,-5.23%
6,Cc1ccc(/C=C/C(=O)c2c(O)cc(C)oc2=O)cc1,-0.902%
7,CCOC(=O)c1c(C)sc2c1OC(N)=C(C#N)C2c1ccc(O)c(OC)c1 (centres unmarked),1.76%
8,CC(C)OCc1nc(O)c2c(n1)-c1ccccc1CC21CCCC1,4.88%
9,Cc1cc(C)n(-c2cc(Oc3ccccc3)ncn2)n1,-0.884%
10,CCC(Sc1nncn2c1cc1sccc12)C(=O)NCc1ccc(C)cc1 (centres unmarked),-5.61%
11,C=CCSc1nnc(NC(=O)c2cc(=O)c3cc(C)ccc3o2)s1,-1.47%
12,CC(Oc1cccc(Cl)c1)C(=O)Nc1cccc(F)c1 (centres unmarked),-7.31%
13,O=C(CCn1cccc1)NCC1COc2ccccc2O1 (centres unmarked),-2.67%
14,Cc1ccc(S(=O)(=O)NOCCCN2C(=O)c3ccccc3C2=O)cc1,-0.992%
15,CCOC(=O)c1cc(-c2ccccc2)sc1NC(=O)C(C(C)C)N1C(=O)c2ccccc2C1=O (centres unmarked),-6.6%
16,COc1ccc(C(=O)Nc2nc(-c3nnn(-c4ccc(C)cc4C)c3C)ns2)cc1,1.97%
17,CCOC(=O)C1=C(CSc2nnc(C)s2)NC(=O)NC1c1ccc(Cl)cc1 (centres unmarked),0.9%
18,CCn1nccc1C(=O)Nc1cccc(OC)c1,-2.8%
19,CCN(CC)CCCN(C)C(=O)Cn1ncc2c(=O)oc3ccc(C)cc3c21,-7.13%
20,O=C(NCCN1CCOCC1)C1CCC(CNS(=O)(=O)c2ccccc2)CC1 (centres unmarked),6.95%
21,Cc1cccc(CN2C(=O)N/C(=C/c3ccc(O)c(Br)c3)C2=O)c1,7.64%
22,O=C(Nc1ccc(Cl)cc1)N1CCN(C/C=C/c2ccccc2)CC1,-0.116%
23,CCCCNC(=O)COCc1cc(-c2ccc(F)cc2)on1,-4.1%
24,O=C(O)c1[nH]c2ccccc2c1CNCc1ccc2c(c1)OCO2,-3.21%
25,[O-][n+]1c2c([n+]([O-])c3cc(Br)ccc31)CCCC2,0.146%
